The data scatter; read single values as rough.
Experiment: amyloid nucleation score relative to library mode (yeast Sup35 reporter selection) (log enrichment difference); higher = more amyloid nucleation; sequences are the first 22 residues of the Bri2 peptide extended by up to 12 random residues
Conditions: random library (experiment): 1;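 active = nucleation score significantly above 0 at FDR 0.05; inactive = not significantly above 0 or absent from output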
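Also: [psi-pin-] Saccharomyces cerevisiae expressing SupN fusions, induced by 100 µM Cu2SO4, selected 7 d at 30 °C without adenine and uracil, scored by deep sequencing of output versus input.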

Sequence	amyloid nucleation score
EASNCFAIRHFENKFAVETLICLRFPRTDDGMRR	inactive
EASNCFAIRHFENKFAVETLICFRYDPSDRSCGC	3.25
EASNCFAIRHFENKFAVETLICHDTGTRVGLTCG	inactive
EASNCFAIRHFENKFAVETLICLPAGGNYGVAQA	inactive
EASNCFAIRHFENKFAVETLICARPWAEPPHGQV	-0.0755
EASNCFAIRHFENKFAVETLICNLLSCRDLFNNL	8.19
EASNCFAIRHFENKFAVETLICATVCWST	0.103
EASNCFAIRHFENKFAVETLICKQYDTAD	inactive
EASNCFAIRHFENKFAVETLICFVFE	7.67
EASNCFAIRHFENKFAVETLICWRWFPLYCVLPV	inactive
EASNCFAIRHFENKFAVETLICGGRWPWQGAWAC	inactive
EASNCFAIRHFENKFAVETLICDTSS	inactive
EASNCFAIRHFENKFAVETLICGVSDNYATPDWY	inactive
EASNCFAIRHFENKFAVETLICFAFSRRQWMGWA	inactive
EASNCFAIRHFENKFAVETLICLELPRLPRLWRV	1.22
EASNCFAIRHFENKFAVETLICGMVVVDCKCCRA	7.85
EASNCFAIRHFENKFAVETLICYFILWMVWARDP	inactive
EASNCFAIRHFENKFAVETLICNSRNWYTRIGW	0.627
EASNCFAIRHFENKFAVETLICLTRGKEDVHSHA	inactive
EASNCFAIRHFENKFAVETLICFCYRTGRRTDPR	3.05
EASNCFAIRHFENKFAVETLICASTMKGCRRDFT	-0.0194

Sequence	amyloid nucleation score
EASNCFAIRHFENKFAVETLICAREIGESRCLQG	inactive
EASNCFAIRHFENKFAVETLICPI	inactive
EASNCFAIRHFENKFAVETLICFKVVRKPRDVCQ	1.86
EASNCFAIRHFENKFAVETLICLRRLLRSREFVM	0.636
EASNCFAIRHFENKFAVETLICVVWSRCDCWRVG	inactive
EASNCFAIRHFENKFAVETLICPMKCCKCCVGER	4.78
EASNCFAIRHFENKFAVETLICGYPASSRVAKM	1.41
EASNCFAIRHFENKFAVETLICLILRHVSWNARR	inactive
EASNCFAIRHFENKFAVETLICFWCFGVRVGRDS	6.21
EASNCFAIRHFENKFAVETLICVGLETKEVGLGT	inactive
EASNCFAIRHFENKFAVETLICRPRLSVSGAGS	inactive
EASNCFAIRHFENKFAVETLICLYKQNHWKSYRT	3.09
EASNCFAIRHFENKFAVETLICATGYAVEVRPEL	inactive
EASNCFAIRHFENKFAVETLICKIAYRWRARAVG	inactive
EASNCFAIRHFENKFAVETLICRFVRLFLTGMVE	inactive
EASNCFAIRHFENKFAVETLICDVRAPDRRKLRG	inactive
EASNCFAIRHFENKFAVETLICRRLRESVPGGR	inactive
EASNCFAIRHFENKFAVETLICFMMFR	inactive
EASNCFAIRHFENKFAVETLICKSTELLPTDRVG	inactive
EASNCFAIRHFENKFAVETLICRVSVLYMVCSTV	inactive
EASNCFAIRHFENKFAVETLICAST	-0.029

Same assay, conditions: random library (experiment): 2

Sequence	amyloid nucleation score
EASNCFAIRHFENKFAVETLICHTLLQREVRSVL	4.14
EASNCFAIRHFENKFAVETLICELCVCRLRNASA	4.53
EASNCFAIRHFENKFAVETLICRDYSVNLEPISF	inactive
EASNCFAIRHFENKFAVETLICYFLVIHFSCFKD	inactive
EASNCFAIRHFENKFAVETLICAYVIRCHKFSVV	inactive
EASNCFAIRHFENKFAVETLICMCNENLLFESW	4.01
EASNCFAIRHFENKFAVETLICDFYIWACIKRLL	inactive
EASNCFAIRHFENKFAVETLICHYFKRSREHRDE	inactive
EASNCFAIRHFENKFAVETLICLILSSPRGASSV	4.52
EASNCFAIRHFENKFAVETLICGQEIYG	inactive
EASNCFAIRHFENKFAVETLICWEPEYCSESI	inactive
EASNCFAIRHFENKFAVETLICPCWYVVYFLW	inactive
EASNCFAIRHFENKFAVETLICGRL	inactive
EASNCFAIRHFENKFAVETLICWLFVNWLSSWNS	inactive
EASNCFAIRHFENKFAVETLICFVLVHHRVPFDG	inactive
EASNCFAIRHFENKFAVETLICFYMFS	5.76
EASNCFAIRHFENKFAVETLICHYSKYLWADDGA	3.81
EASNCFAIRHFENKFAVETLICIFHRRVLIYYTF	inactive
EASNCFAIRHFENKFAVETLICYVVFVRTFKVLW	-0.0583
EASNCFAIRHFENKFAVETLICNLKEQKARCHNH	inactive
EASNCFAIRHFENKFAVETLICLMLFSKVLMKVC	inactive
EASNCFAIRHFENKFAVETLICVLPMWNWSVQKG	7.3
EASNCFAIRHFENKFAVETLICHSSPGLIVGLIT	inactive

Same assay, conditions: random library (experiment): 3

Sequence	amyloid nucleation score
EASNCFAIRHFENKFAVETLICMWLARIWLRQAG	inactive
EASNCFAIRHFENKFAVETLICKTKLKSRVTRWG	2.98
EASNCFAIRHFENKFAVETLICQSALHKARIGGH	inactive
EASNCFAIRHFENKFAVETLICMCKGRLPLSDSV	5.15
EASNCFAIRHFENKFAVETLICCRLVYQNVLVGS	inactive
EASNCFAIRHFENKFAVETLICACMWCSTWVLWD	0.867
EASNCFAIRHFENKFAVETLICLSLYIGRCVLTE	inactive
EASNCFAIRHFENKFAVETLICAGDVPHLETVAV	inactive
EASNCFAIRHFENKFAVETLICIMMMSVSEQWYR	inactive
EASNCFAIRHFENKFAVETLICQGSAGDASRASG	inactive
EASNCFAIRHFENKFAVETLICVSNRWWRALLVQ	inactive
EASNCFAIRHFENKFAVETLICRAPLSGTGTAGE	inactive
EASNCFAIRHFENKFAVETLICTVASW	inactive
EASNCFAIRHFENKFAVETLICLMCHEYVLEALV	inactive
EASNCFAIRHFENKFAVETLICRVVY	inactive
EASNCFAIRHFENKFAVETLICCCLIRRTTPVGL	inactive
EASNCFAIRHFENKFAVETLICVLYFTGFSYSVC	inactive
EASNCFAIRHFENKFAVETLICKVLSWLKARASR	inactive
EASNCFAIRHFENKFAVETLICPTWLSLRTKFRA	inactive
EASNCFAIRHFENKFAVETLICDPLDNKSGDFKM	inactive

Reference: the supplement of paper PMC12067230
